Laboratory results taken from the supplement of paper PMC10126150.
Values marked as one replicate rest on one cluster of the flow cell; about a third of the high ones do not repeat.

Tested on: ATP
Assay: switch fluorescence ratio, 500 uM ATP over buffer (Cy3 cluster intensity, sum of 5 cycles each) (fold (ratio)); higher = stronger signal-on switching upon ATP binding; sequences stand for … in TCGTCGGCAGCGTCAGATGTGTATAAGAGACAGTTTTTTTTTTTTTTTTTTTTTTTTT…TC
Conditions: aptamer strand: ATP DNA aptamer (quencher-CACCTGGGGGAGTATTGCGGAGGAAGG + anchor), 100 nM annealed; ATP concentration: 500 uM; one replicate
Outline: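 Clusters with intensities outside 100-1000 RFU were excluded. The remaining Cy3-labelled switching-strand clusters on a modified Illumina MiSeq flow-cell had been annealed to 100 nM quencher-labelled ATP aptamer and imaged in selection buffer, then after 15 min with 500 uM ATP at 22 °C, for five cycles separated by NaOH stripping and re-annealing. The fluorescence ratio, averaged per switch-domain sequence, is each cluster's summed target-cycle Cy3 intensity over its summed buffer-cycle Cy3 intensity.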
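Also: ATP exposure 15 min at 22 °C before imaging.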

Sequence	switch fluorescence ratio
TGAAATCGGA	0.988
TGCCTCAAAC	1.07
TCCCACTATT	0.998
GGTCATGTCG	1.03
TTTAGGCGCG	1.03
GACTTTGTGT	1
TCGCGGTCAT	1.01
TATCACACAT	1.07
TATCAATTTC	0.99
TGGGAGCTAC	1.7
TCAGAGTAGA	1.02
CGACTGCCTA	1.12
TTCTCGATTC	1.04
ACACTTAACA	1.08
ACAGGTGTA	2.12
GATGTCAGAT	1.03
CGTGCGTTTG	1.03
CTCTTGAGCT	1.02
TGGACTGAGG	1.01
TTTTGGCAAT	0.955
ATCTACGATG	1.02
TGGAATGAAA	1
TCAATTTAGT	0.988
TTATAATGTA	0.983
CATAGTCTA	1.02

Sequence	switch fluorescence ratio
GACCACTAAT	1.04
GGCATAACGG	1.01
TCTTGTAGGC	1.08
TGGTTGTGAA	0.983
TTTGTGCC	0.994
ATAGCCTTTT	1.17
ATAGCCTTCT	1.03
CTCTTATAGC	1.59
AAGGACAATC	1.09
TTTGCACATA	1.07
CTAAAAAACC	1.16
CTTTAGGGCT	1.03
TTCTTAGAAC	1.07
AAAGGCTACG	0.972
TAATTATCCT	1.05
ATAGATGGGA	0.994
ACTACATACT	1.51
CAACCGCAGG	1.01
TTTGGTTA	0.976
GGACTAGAAC	1.02
CTGTGACGG	1.05
CCTCTCAAAT	4.3
TAGAAAGAAT	1.02
TGCGGCGATT	1.04
TTGCGTGTTC	1.16

Sequence	switch fluorescence ratio
GTGAATGGCC	1.06
TCCAGGGCTC	0.998
TTAACTCCTA	1.03
GTAGTTTGGG	0.985
CCGATAATGA	1.4
AGGGGGATGA	1.01
GCAATCAGGT	1.16
TTGCATAAGT	1.12
CGGCCTACGG	0.942
AGCTCGGCTT	0.973
TACCCCTCAG	1.29
CCACTTCGAC	1.14
TCAGCCAGTC	1.03
CGGGTATCTA	0.972
GGCCATGTTT	1.02
ATACGACTAT	1.1
TTATGAGAGA	0.996
TTTTATGCAT	1.01
TTGGACCTTC	1.52
GCACTCGGAG	0.957
ATGTGAGGAC	1.08
CATAAAGATT	0.988
ACCCACGTCC	1.49
TCGCTTTGA	1.04
CAAATGACCT	1.39

Sequence	switch fluorescence ratio
AACGGCCCGG	1.08
TTTCTGCCGA	1.28
TGCAGAAACG	1.1
GGAAGTTATC	0.995
GATTGCCAGT	1.04
GACCTTGCT	1.79
AATTCATAAG	0.943
TGCTACAATG	1
ATTCTAGTTC	1.07
CCAGCGCTGT	0.991
TTGACGTATC	2
CGAATAGCTG	0.97
ATCCCACGG	1.12
AAGAAACCGC	1.74
TGATTTCAGT	0.98
AAACTTCAGC	1.04
CGCAACGTCC	1.19
CCAGTGTCCA	1.02
CTCGGATTCG	1.03
CGGAGTCCGA	1.01
GCTCGAGCCA	1.01
TTTTTTTTA	1.01
GTAAATCCGG	0.973
CGCATCTCAG	1.24
CTGTCCATGC	1.25
